# Experimental data as given in PMC5892938.
# Some of the results follow. The source does not settle which construct or isoform was used.
# Target: GST-SBP-ILF3 (Homo sapiens) (UniProt Q12906)
# Experiment: targeted RNA Bind-n-Seq
# Conditions: RBNS binding buffer: 25 mM Tris pH 7.5, 150 mM KCl, 3 mM MgCl2, 0.1% Tween, 0.5 mg/mL BSA, 1 mM DTT; 27 nM protein, 750 pM RNA pool; temperature not stated; high values mean tight binding; sequences stand for … in GGGUAAAAGCGAGGUGAA…CGGGACAAGUAUUAUGGG
row,Sequence,binding signal (log2 fold change)
1,UUUUUUUUUUGAGACGGAGGCCGUCUCCGG [tttttgagapaired],0.839
2,UUUUUUUUUUGAGAUGGCCACCAUCUCCGG [tttttgagapaired],0.722
3,UUUUUUUUUUGAGAUCGGGGCGAUCUCCUA [tttttgagapaired],0.169
4,UUUUUUUUUUGAGAUGGAAUCCAUUUCCUA [tttttgagapaired],-0.302
5,UUUUUUUUUUGAGACGGAUACCGUCUCCUG [tttttgagapaired],0.3
6,UUUUUUUUUUGAGACGGGGUCCGUCUCCAG [tttttgagapaired],0.491
7,UUUUUUUUUUGAGAGGGUCUCCCUCUCCUG [tttttgagapaired],0.694
8,UUUUUUUUUUGAGAGGGAAUCCUUCUCCGG [tttttgagapaired],-0.153
9,UUUUUUUUUUGAGAGGGCCCCCCUCUCCUA [tttttgagapaired],0.7
10,GUGUGGUGUGUUGGUCCCUAACACACUAUA [gtspaired],-0.541
11,GGUGUUGGUGUUGGCUCCUAACACCGACGC [gtspaired],-0.433
12,UUUUUUUUUUGAGACUGAAGCAGUCUCCUA [tttttgagapaired],0.0902
13,UUUUUUUUUUGAGAGCGAAUCGCUCUCCAG [tttttgagapaired],0.00878
14,UUUUUUUUUUGAGACGGGAUCCGUCUCCAG [tttttgagapaired],0.33
15,GGUGGUUGUGUUGGCUCCUAACACAGCUAC [gtspaired],-0.301
16,GGUGGUUGUGUUGGACCCUAACACAGCCGC [gtspaired],-0.186
17,UUUUUUUUUUGAGACUGCAUCAGUCUCCUA [tttttgagapaired],0.213
18,GUGGUGUGUGUUGGAUCCUAACACACAUCG [gtspaired],-0.92
19,GGUGGUGGUGUUGGCACCUAACACCGCUAC [gtspaired],-0.266
20,GUUGGUGGUGUUGGAAUCUAACACCGCCGA [gtspaired],-0.414
21,GUGUGGUGUGUUGGCCUCUAACACACUACA [gtspaired],-0.338
22,UUUUUUUUUUGAGACCGGAACGGUCUUCUG [tttttgagapaired],0.122

row,Sequence,binding signal (log2 fold change)
1,UUCUCUUCUCCUCCGCGGGAGGGGAAGGGA [ctspaired],-0.297
2,GUGUGUGGUGUUGGACUCUAACACCAUACG [gtspaired],-1.08
3,UUUUUUUUUUGAGAGUGGUCCAUUCUCCAG [tttttgagapaired],0.574
4,UUCUCUUCUCCUCCAUCGGAGGGGGAGGGA [ctspaired],-0.535
5,UUUUUUUUUUGAGAGCGAGACGCUCUUCUA [tttttgagapaired],0.171
6,UUUUUUUUUUGAGACCGAUUCGGUCUCCUG [tttttgagapaired],0.422
7,UUUUUUUUUUGAGACGGGGACUGUCUCCAG [tttttgagapaired],0.99
8,GUUGUGUGUGUUGGCCUCUAACACACACGA [gtspaired],-0.62
9,UUUUUUUUUUGAGACUGAAACAGUCUCCUG [tttttgagapaired],0.205
10,UUUUUUUUUUGAGAACGGUACGUUCUCCGG [tttttgagapaired],0.271
11,UUUUUUUUUUGAGAACGUAGCGUUCUCCAG [tttttgagapaired],0.275
12,UUCCUCUCUCCUCCGCUGGAGGGGGGAGGA [ctspaired],-0.491
13,UUUUUUUUUUGAGACUGAACCAGUCUUCUA [tttttgagapaired],-0.25
14,GUGUGUGGUGUUGGAUCCUAACACCAUACA [gtspaired],-0.368
15,UUUUUUUUUUGAGAUCGAGACGAUUUCCGG [tttttgagapaired],0.29
16,UUUUUUUUUUGAGAGGGAGUCCUUCUCCUA [tttttgagapaired],0.399
17,UUUUUUUUUUGAGAUCGGAUCGAUCUUCUA [tttttgagapaired],-0.0543
18,GUGUGGUGUGUUGGUAUCUAACACACUAUA [gtspaired],-0.586
19,UUUUUUUUUUGAGAGCGUGACGUUCUCCAG [tttttgagapaired],0.294
20,GUGUGGUGUGUUGGUACCUAACACAUCACA [gtspaired],-0.343
21,GUGUGUGGUGUUGGACCCUAACACCGCACA [gtspaired],-0.623
22,UUUUUUUUUUGAGACUGCGGCAGUCUCCAG [tttttgagapaired],0.584

row,Sequence,binding signal (log2 fold change)
1,GUGUUGUGUGUUGGCCUCUAACACACAACG [gtspaired],-0.806
2,UUUUUUUUUUGAGACGGUAUCCGUCUCCGG [tttttgagapaired],0.322
3,UUUUUUUUUUGAGAACGGUCCGUUCUCCUA [tttttgagapaired],0.539
4,UUUUUUUUUUGAGAGCGAAACGCUCUCCAG [tttttgagapaired],0.345
5,GGUUGUGGUGUUGGAGCCUAACACCGCGAC [gtspaired],-0.584
6,UUUUUUUUUUGAGACGGGACCCGUCUCCAG [tttttgagapaired],0.68
7,GUGUGUGGUGUUGGAUUCUAACACCGCGCA [gtspaired],-0.72
8,UUUUUUUUUUGAGAGCGACGCGCUCUCCUG [tttttgagapaired],0.35
9,UUCUCUCUUCCUCCGGGGGAGGGAGAGGGA [ctspaired],-0.113
10,UUUUUUUUUUGAGAUGGAGUCCGUCUCCAG [tttttgagapaired],0.566
11,UUUUUUUUUUGAGACGGAUGCCGUUUCCGG [tttttgagapaired],0.744
12,GUGGUGUGUGUUGGACCCUAACACAUACUA [gtspaired],-0.371
13,GUGUGUUGUGUUGGAGUCUAACACAACGCA [gtspaired],-0.00619
14,UUUUUUUUUUGAGACGGCAGCCGUCUCCGG [tttttgagapaired],0.76
15,GUGGUGUGUGUUGGAGUCUAACACAUACUA [gtspaired],-0.871
16,UUUUUUUUUUGAGAUGGUUCCCAUCUUCUA [tttttgagapaired],0.126
17,UUUUUUUUUUGAGAACGGCACGUUCUCCUA [tttttgagapaired],0.162
18,UUCUCUCUUCCUCCUGUGGAGGAGGGGAGA [ctspaired],-0.386
19,UUUUUUUUUUGAGAUGGUUCCCAUCUCCUA [tttttgagapaired],0.144
20,UUUUUUUUUUGAGAUGGGGUCCAUCUCCGG [tttttgagapaired],0.368
21,GUUGUGUGUGUUGGCAUCUAACACACGCGA [gtspaired],-0.45
22,UUUUUUUUUUGAGACUGGUACAGUCUCCGG [tttttgagapaired],0.408
